# From the supplement of paper PMC8728848
# The other results are listed elsewhere or left out.
# B1: Nictaba (Nicotiana tabacum), Q94EW1 (protein)
# chain: MQGQWIAARDLSITWVDNPQYWTWKTVDPNIEVAELRRVAWLDIYGKIETKNLIRKTSYAVYLVFKLTDNPRELERATASLRFVNEVAEGAGIEGTTVFISKKKKLPGELGRFPHLRSDGWLEIKLGEFFNNLGEDGEVEMRLMEINDKTWKSGIIVKGFDIRPN
# Experiments:
# Test in all cases: glycan array binding signal (z-score within array); higher = stronger binding
# Conditions in all cases: glycan notation: IUPAC condensed, linker removed
# Gal(b1-6)Gal = biological target: Gal(b1-6)Gal
# Outline: (§1)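 Arrays were curated from the Consortium for Functional Glycomics database, 3228 in total, and kept only where the protein sequence was available. Binding is expressed as a within-array Z-score. This score was averaged across arrays of the same protein sequence at different concentrations or buffers and across linkers, and negative values can be read as non-binding.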
# Gal3S(b1-3)GalNAc = biological target: Gal3S(b1-3)GalNAc
# Outline: as §1
# Gal3S(b1-3)GlcNAc = biological target: Gal3S(b1-3)GlcNAc
# Outline: as §1
# [1] = biological target: Gal3S(b1-3)[Fuc(a1-4)]GlcNAc
# Outline: as §1
# Gal3S(b1-4)Glc = biological target: Gal3S(b1-4)Glc
# Outline: as §1
# Gal3S(b1-4)Glc6S = biological target: Gal3S(b1-4)Glc6S
# Outline: as §1
# Gal3S(b1-4)GlcNAc = biological target: Gal3S(b1-4)GlcNAc
# Outline: as §1
# Gal3S(b1-4)GlcNAc6S = biological target: Gal3S(b1-4)GlcNAc6S
# Outline: as §1
# [2] = biological target: Gal3S(b1-4)[Fuc(a1-3)]Glc
# Outline: as §1
# [3] = biological target: Gal3S(b1-4)[Fuc(a1-3)]Glc6S
# Outline: as §1
# [4] = biological target: Gal3S(b1-4)[Fuc(a1-3)]GlcNAc
# Outline: as §1
# [5] = biological target: Gal3S(b1-4)[Fuc(a1-3)]GlcNAc6S
# Outline: as §1
# Gal3S4S(b1-4)GlcNAc = biological target: Gal3S4S(b1-4)GlcNAc
# Outline: as §1
# Gal3S6S(b1-4)GlcNAc = biological target: Gal3S6S(b1-4)GlcNAc
# Outline: as §1
# Gal3S6S(b1-4)GlcNAc6S = biological target: Gal3S6S(b1-4)GlcNAc6S
# Outline: as §1
# Gal4S(b1-4)GlcNAc = biological target: Gal4S(b1-4)GlcNAc
# Outline: as §1
# Gal4S6S(b1-4)GlcNAc = biological target: Gal4S6S(b1-4)GlcNAc
# Outline: as §1
# Gal6P(b1-4)GlcNAc = biological target: Gal6P(b1-4)GlcNAc
# Outline: as §1
# Gal6S(b1-3)GlcNAc = biological target: Gal6S(b1-3)GlcNAc
# Outline: as §1
# Gal6S(b1-3)GlcNAc6S = biological target: Gal6S(b1-3)GlcNAc6S
# Outline: as §1
# Gal6S(b1-4)Glc = biological target: Gal6S(b1-4)Glc
# Outline: as §1
# Gal6S(b1-4)Glc6S = biological target: Gal6S(b1-4)Glc6S
# Outline: as §1
# Gal6S(b1-4)GlcNAc = biological target: Gal6S(b1-4)GlcNAc
# Outline: as §1
# Gal6S(b1-4)GlcNAc6S = biological target: Gal6S(b1-4)GlcNAc6S
# Outline: as §1
# GalNAc(a1-3)Gal = biological target: GalNAc(a1-3)Gal
# Outline: as §1
# GalNAc(a1-3)GalNAc = biological target: GalNAc(a1-3)GalNAc
# Outline: as §1
# [6] = biological target: GalNAc(a1-3)GalNAc(a1-3)Gal(a1-4)Gal(b1-4)GlcNAc
# Outline: as §1
# [7] = biological target: GalNAc(a1-3)GalNAc(b1-3)Gal(a1-4)Gal(b1-4)Glc
# Outline: as §1
# [8] = biological target: GalNAc(a1-3)GalNAc(b1-3)Gal(a1-4)Gal(b1-4)GlcNAc
# Outline: as §1
# GalNAc(b1-3)Gal = biological target: GalNAc(b1-3)Gal
# Outline: as §1
# [9] = biological target: GalNAc(b1-3)Gal(a1-4)Gal(b1-4)GlcNAc
# Outline: as §1
# [10] = biological target: GalNAc(b1-3)Gal(a1-4)Gal(b1-4)GlcNAc(b1-3)Gal(b1-4)Glc
# Outline: as §1
# [11] = biological target: GalNAc(b1-3)Gal(a1-6)Gal(b1-4)Glc
# Outline: as §1
# GalNAc(b1-3)GalNAc = biological target: GalNAc(b1-3)GalNAc
# Outline: as §1
# GalNAc(b1-3)GlcNAc = biological target: GalNAc(b1-3)GlcNAc
# Outline: as §1
# GalNAc(b1-4)Gal(b1-4)Glc = biological target: GalNAc(b1-4)Gal(b1-4)Glc
# Outline: as §1
# GalNAc(b1-4)GlcNAc = biological target: GalNAc(b1-4)GlcNAc
# Outline: as §1
# [12] = biological target: GalNAc(b1-4)GlcNAc(b1-2)Man
# Outline: as §1
# [13] = biological target: GalNAc(b1-4)GlcNAc(b1-2)Man(a1-3)[GalNAc(b1-4)GlcNAc(b1-2)Man(a1-6)]Man(b1-4)GlcNAc(b1-4)GlcNAc
# Outline: as §1
# [14] = biological target: GalNAc(b1-4)GlcNAc(b1-3)GalNAc(b1-4)GlcNAc
# Outline: as §1
# GalNAc(b1-4)GlcNAc6S = biological target: GalNAc(b1-4)GlcNAc6S
# Outline: as §1
# GalNAc(b1-6)GalNAc = biological target: GalNAc(b1-6)GalNAc
# Outline: as §1
# GalNAc3S(b1-4)GlcNAc = biological target: GalNAc3S(b1-4)GlcNAc
# Outline: as §1
# GalNAc3S(b1-4)GlcNAc3S = biological target: GalNAc3S(b1-4)GlcNAc3S
# Outline: as §1
# [15] = biological target: GalNAc3S(b1-4)[Fuc(a1-3)]GlcNAc
# Outline: as §1
binder,measurement,setting,value
B1,glycan array binding signal (z-score),Gal(b1-6)Gal,-0.269
same,glycan array binding signal (z-score),Gal3S(b1-3)GalNAc,-0.278
same,glycan array binding signal (z-score),Gal3S(b1-3)GlcNAc,-0.337
same,glycan array binding signal (z-score),[1],-0.334
same,glycan array binding signal (z-score),Gal3S(b1-4)Glc,-0.263
same,glycan array binding signal (z-score),Gal3S(b1-4)Glc6S,-0.242
same,glycan array binding signal (z-score),Gal3S(b1-4)GlcNAc,-0.204
same,glycan array binding signal (z-score),Gal3S(b1-4)GlcNAc6S,-0.163
same,glycan array binding signal (z-score),[2],-0.278
same,glycan array binding signal (z-score),[3],-0.24
same,glycan array binding signal (z-score),[4],-0.386
same,glycan array binding signal (z-score),[5],-0.385
same,glycan array binding signal (z-score),Gal3S4S(b1-4)GlcNAc,-0.289
same,glycan array binding signal (z-score),Gal3S6S(b1-4)GlcNAc,-0.244
same,glycan array binding signal (z-score),Gal3S6S(b1-4)GlcNAc6S,-0.22
same,glycan array binding signal (z-score),Gal4S(b1-4)GlcNAc,-0.132
same,glycan array binding signal (z-score),Gal4S6S(b1-4)GlcNAc,-0.303
same,glycan array binding signal (z-score),Gal6P(b1-4)GlcNAc,-0.384
same,glycan array binding signal (z-score),Gal6S(b1-3)GlcNAc,-0.322
same,glycan array binding signal (z-score),Gal6S(b1-3)GlcNAc6S,-0.248
same,glycan array binding signal (z-score),Gal6S(b1-4)Glc,-0.275
same,glycan array binding signal (z-score),Gal6S(b1-4)Glc6S,-0.226
same,glycan array binding signal (z-score),Gal6S(b1-4)GlcNAc,-0.214
same,glycan array binding signal (z-score),Gal6S(b1-4)GlcNAc6S,-0.28
same,glycan array binding signal (z-score),GalNAc(a1-3)Gal,-0.277
same,glycan array binding signal (z-score),GalNAc(a1-3)GalNAc,-0.304
same,glycan array binding signal (z-score),[6],-0.188
same,glycan array binding signal (z-score),[7],-0.277
same,glycan array binding signal (z-score),[8],-0.276
same,glycan array binding signal (z-score),GalNAc(b1-3)Gal,-0.308
same,glycan array binding signal (z-score),[9],-0.298
same,glycan array binding signal (z-score),[10],-0.259
same,glycan array binding signal (z-score),[11],-0.221
same,glycan array binding signal (z-score),GalNAc(b1-3)GalNAc,-0.287
same,glycan array binding signal (z-score),GalNAc(b1-3)GlcNAc,-0.386
same,glycan array binding signal (z-score),GalNAc(b1-4)Gal(b1-4)Glc,-0.287
same,glycan array binding signal (z-score),GalNAc(b1-4)GlcNAc,-0.228
same,glycan array binding signal (z-score),[12],-0.384
same,glycan array binding signal (z-score),[13],0.175
same,glycan array binding signal (z-score),[14],-0.377
same,glycan array binding signal (z-score),GalNAc(b1-4)GlcNAc6S,-0.382
same,glycan array binding signal (z-score),GalNAc(b1-6)GalNAc,-0.337
same,glycan array binding signal (z-score),GalNAc3S(b1-4)GlcNAc,-0.387
same,glycan array binding signal (z-score),GalNAc3S(b1-4)GlcNAc3S,-0.386
same,glycan array binding signal (z-score),[15],-0.387
